In the antibiotic and cytotoxicity screens of Wong et al. (2023) one finds cytotoxicity call and growth inhibition call data, which are given here for 27 compounds.

The subject of assay [1] is HSkMC (human skeletal muscle cells). Nature of the assay: cytotoxicity call (relative viability < 0.9). Conditions: 10 µM.
Assay [2] has as its system HepG2. Nature of the assay: cytotoxicity call (relative viability < 0.9). To be noted: 10 µM.
The test system of assay [3] is S. aureus RN4220. Nature of the assay: growth inhibition call (relative growth <= 0.2). To be noted: 50 µM.

The other results are listed elsewhere or left out.

Regarding `COc1ccc(NC(=O)Nc2ccc3c(c2)C(=O)N([C@@H](C)CO)C[C@@H](C)[C@H](CN(C)CC2CCCCC2)OCCCC[C@@H](C)O3)cc1`, the cytotoxicity call in assay [1] and in assay [2] was “inactive” in each case. In addition, in assay [3], the growth inhibition call is “inactive”.
Take `Cc1nnc(CN)o1`: the cytotoxicity call in assay [1] and in assay [2] was “inactive” throughout. In addition, the growth inhibition call in assay [3] is “inactive”.
As to `COC(=O)C[C@H]1CC[C@@H]2[C@H](COC[C@H](O)CN2S(=O)(=O)c2ccccc2C)O1`, the cytotoxicity call in assay [1] and in assay [2] was “inactive” each time. Further, the growth inhibition call in assay [3] was “inactive”.
As to `COc1ccc(NC(=O)Nc2ccc3c(c2)C(=O)N([C@H](C)CO)C[C@@H](C)[C@H](CN(C)S(=O)(=O)c2ccc(Cl)cc2)OCCCC[C@H](C)O3)cc1`, the cytotoxicity call in assay [1] and in assay [2] was “inactive” in each case. The growth inhibition call in assay [3] is “inactive”.
With `CCNC1CN(CCCOC)S(=O)(=O)c2sc(S(N)(=O)=O)cc21` (stereo unspecified), the cytotoxicity call in assay [1] and in assay [2] was “inactive” in each case. Moreover, in assay [3], the growth inhibition call is “inactive”.
As to `CN1C(=O)c2cc(NC(=O)Cc3cccs3)ccc2OC[C@@H]2O[C@@H](CC(=O)NCCCN3CCOCC3)CC[C@@H]21`, the cytotoxicity call in assay [1] and in assay [2] was “inactive” throughout. For the same compound, the growth inhibition call in assay [3] was “inactive”.
Consider `C[C@H](CO)N1C[C@H](C)[C@H](CN(C)S(=O)(=O)c2ccccc2)Oc2ccc(NS(=O)(=O)c3ccccc3)cc2CC1=O`, for which the cytotoxicity call in assay [1] and in assay [2] was “inactive” throughout. In addition, the growth inhibition call in assay [3] is “inactive”.
Consider `C[C@H](CO)N1C[C@H](C)[C@@H](CN(C)C(=O)Nc2ccc(F)cc2)Oc2ccc(NC(=O)Nc3ccc(C(F)(F)F)cc3)cc2CC1=O`, for which, in assay [1], the cytotoxicity call is “inactive”. Moreover, the cytotoxicity call in assay [2] was “active”. In addition, in assay [3], the growth inhibition call was “inactive”.
Turning to `COCC(=O)Nc1ccc2c(c1)C(=O)N(C)C[C@H](OC)[C@H](C)CN(Cc1cccc(F)c1)[C@H](C)CO2`, the cytotoxicity call in assay [1] and in assay [2] was “inactive” in each case. The growth inhibition call in assay [3] is “inactive”.
For `O=C(C[C@H]1CC[C@@H]2[C@H](COC[C@H](O)CN2S(=O)(=O)c2ccccc2)O1)NCc1ccc2c(c1)OCO2`, the cytotoxicity call in assay [1] and in assay [2] was “inactive” each time. Besides, the growth inhibition call in assay [3] is “inactive”.
As to `C[C@@H]1CCCCO[C@@H](CN(C)Cc2ccc(C(=O)O)cc2)[C@H](C)CN([C@H](C)CO)C(=O)c2cc(NC(=O)Cc3ccccc3)ccc2O1`, the cytotoxicity call in assay [1] and in assay [2] was “inactive” throughout. Besides, the growth inhibition call in assay [3] is “inactive”.
`CN(C)C(=O)c1ccc(-c2ccc3n(c2=O)C[C@@H]2[C@@H](CO)[C@H](C(=O)NCCc4ccccc4)N[C@H]32)cc1`: the cytotoxicity call in assay [1] and in assay [2] was “inactive” each time. In addition, in assay [3], the growth inhibition call is “inactive”.
Regarding `O=C(COc1ccccc1)N1CCNC1=O`, the cytotoxicity call in assay [1] and in assay [2] was “inactive” in each case. In addition, the growth inhibition call in assay [3] was “inactive”.
Turning to `COc1ccc(S(=O)(=O)N(C)C[C@@H]2Oc3c(NS(=O)(=O)c4ccccc4)cccc3C(=O)N([C@H](C)CO)C[C@@H]2C)cc1`, the cytotoxicity call in assay [1] and in assay [2] was “inactive” in each case. Further, in assay [3], the growth inhibition call was “inactive”.
Turning to `COc1ccccc1CNC(=O)C[C@@H]1C[C@H]2c3cc(NC(=O)c4ccc5c(c4)OCO5)ccc3O[C@H]2[C@@H](CO)O1`, the cytotoxicity call in assay [1] and in assay [2] was “inactive” each time. Further, in assay [3], the growth inhibition call is “inactive”.
`NCc1ccc2occc2c1`: the cytotoxicity call in assay [1] and in assay [2] was “inactive” in each case. For the same compound, the growth inhibition call in assay [3] was “inactive”.
With `C[C@H]1CN([C@@H](C)CO)C(=O)c2cccc(NS(=O)(=O)c3ccc(F)cc3)c2O[C@H]1CN(C)CC1CC1`, the cytotoxicity call in assay [1] and in assay [2] was “inactive” throughout. In addition, the growth inhibition call in assay [3] was “inactive”.
Take `C[C@H](CO)N1C[C@H](C)[C@@H](CN(C)C(=O)NC2CCCCC2)OCCCC[C@H](C)Oc2ccc(NC(=O)Nc3ccc(C(F)(F)F)cc3)cc2C1=O`: the cytotoxicity call in assay [1] and in assay [2] was “inactive” throughout. Moreover, in assay [3], the growth inhibition call is “inactive”.
For the compound `COCC(=O)Nc1ccc2c(c1)OC[C@@H](C)N(Cc1cccc(F)c1)C[C@@H](C)[C@@H](OC)CN(C)C2=O`, the cytotoxicity call in assay [1] and in assay [2] was “inactive” throughout. Besides, the growth inhibition call in assay [3] is “inactive”.
In the case of `C[C@@H]1CN([C@H](C)CO)C(=O)c2cccc(NS(=O)(=O)c3ccc(Cl)cc3)c2O[C@H]1CN(C)Cc1ccc(C(F)(F)F)cc1`, the cytotoxicity call in assay [1] and in assay [2] was “inactive” each time. The growth inhibition call in assay [3] was “inactive”.
For the compound `CC[C@@H](N)c1ncnn1CC`, the cytotoxicity call in assay [1] and in assay [2] was “inactive” each time. Besides, in assay [3], the growth inhibition call is “inactive”.
Consider `C[C@@H]1CCCCO[C@@H](CN(C)S(=O)(=O)c2ccccc2)[C@@H](C)CN([C@H](C)CO)C(=O)c2cc(NS(=O)(=O)c3ccc(Cl)cc3)ccc2O1`, for which the cytotoxicity call in assay [1] and in assay [2] was “inactive” each time. Also, the growth inhibition call in assay [3] was “inactive”.
As to `COc1ccc(NC(=O)N(C)C[C@@H]2Oc3ccc(NS(C)(=O)=O)cc3C(=O)N([C@H](C)CO)C[C@@H]2C)cc1`, the cytotoxicity call in assay [1] and in assay [2] was “inactive” in each case. Besides, the growth inhibition call in assay [3] was “inactive”.
With `CC1(C)NCS[C@H]1C(=O)O`, the cytotoxicity call in assay [1] and in assay [2] was “inactive” each time. Moreover, the growth inhibition call in assay [3] is “inactive”.
For the compound `C[C@@H]1CN([C@@H](C)CO)C(=O)c2cc(/C=C/c3ccccc3)cnc2O[C@@H]1CN(C)C(=O)c1cnccn1`, the cytotoxicity call in assay [1] and in assay [2] was “inactive” in each case. Also, in assay [3], the growth inhibition call is “inactive”.
Consider `COc1cccc(OC[C@@H](O)CN(CCO)CCO)c1`, for which the cytotoxicity call in assay [1] and in assay [2] was “inactive” throughout. In addition, in assay [3], the growth inhibition call is “inactive”.
For `C[C@@H]1CCCCO[C@H](CN(C)C(=O)c2ccncc2)[C@H](C)CN([C@H](C)CO)C(=O)c2cc(NS(=O)(=O)c3cn(C)cn3)ccc2O1`, the cytotoxicity call in assay [1] and in assay [2] was “inactive” in each case. Besides, in assay [3], the growth inhibition call is “inactive”.
